# The list shows a part of the results.
# What was measured:
# Test in all cases: glycan array binding signal (z-score within array); higher = stronger binding
# Settings in all cases: glycan notation: IUPAC condensed, linker removed
# Neu5Ac(a2-3)Gal(b1-4)Glc = biological target: Neu5Ac(a2-3)Gal(b1-4)Glc
# How it was run: (§1)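 Glycan array data were curated from 3228 arrays in the Consortium for Functional Glycomics database and kept only where the protein sequence was available. Glycan names were converted to IUPAC-condensed notation, and columns mapping to the same glycan were averaged. The binding signal is a within-array Z-score, averaged across arrays of the same protein sequence at different concentrations or buffers and across linkers. Negative Z-scores can be read as non-binding.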
# [1] = biological target: Neu5Ac(a2-3)Gal(b1-4)GlcNAc
# How it was run: as §1
# [2] = biological target: Neu5Ac(a2-3)Gal(b1-4)GlcNAc(b1-2)Man(a1-3)[GlcNAc(b1-2)Man(b1-4)GlcNAc(b1-2)Man(a1-6)]Man(b1-4)GlcNAc(b1-4)GlcNAc
# How it was run: as §1
# [3] = biological target: Neu5Ac(a2-3)Gal(b1-4)GlcNAc(b1-2)Man(a1-3)[Neu5Ac(a2-6)Gal(b1-4)GlcNAc(b1-2)Man(a1-6)]Man(b1-4)GlcNAc(b1-4)GlcNAc
# How it was run: as §1
# [4] = biological target: Neu5Ac(a2-3)Gal(b1-4)GlcNAc(b1-3)Gal(b1-3)GlcNAc
# How it was run: as §1
# [5] = biological target: Neu5Ac(a2-3)Gal(b1-4)GlcNAc(b1-3)Gal(b1-4)GlcNAc
# How it was run: as §1
# [6] = biological target: Neu5Ac(a2-3)Gal(b1-4)GlcNAc(b1-3)Gal(b1-4)GlcNAc(b1-3)Gal(b1-4)GlcNAc
# How it was run: as §1
# [7] = biological target: Neu5Ac(a2-3)Gal(b1-4)GlcNAc(b1-3)Gal(b1-4)[Fuc(a1-3)]GlcNAc
# How it was run: as §1
# [8] = biological target: Neu5Ac(a2-3)Gal(b1-4)GlcNAc(b1-3)GalNAc
# How it was run: as §1
# [9] = biological target: Neu5Ac(a2-3)Gal(b1-4)GlcNAc(b1-6)[Gal(b1-3)]GalNAc
# How it was run: as §1
# [10] = biological target: Neu5Ac(a2-3)Gal(b1-4)GlcNAc(b1-6)[Neu5Ac(a2-3)Gal(b1-3)]GalNAc
# How it was run: as §1
# [11] = biological target: Neu5Ac(a2-3)Gal(b1-4)GlcNAc6S
# How it was run: as §1
# [12] = biological target: Neu5Ac(a2-3)Gal(b1-4)[Fuc(a1-3)]GlcNAc
# How it was run: as §1
# [13] = biological target: Neu5Ac(a2-3)Gal(b1-4)[Fuc(a1-3)]GlcNAc(b1-3)Gal
# How it was run: as §1
# [14] = biological target: Neu5Ac(a2-3)Gal(b1-4)[Fuc(a1-3)]GlcNAc(b1-3)Gal(b1-4)GlcNAc
# How it was run: as §1
# [15] = biological target: Neu5Ac(a2-3)Gal(b1-4)[Fuc(a1-3)]GlcNAc(b1-3)Gal(b1-4)[Fuc(a1-3)]GlcNAc(b1-3)Gal(b1-4)[Fuc(a1-3)]GlcNAc
# How it was run: as §1
# [16] = biological target: Neu5Ac(a2-3)Gal(b1-4)[Fuc(a1-3)]GlcNAc(b1-6)[Gal(b1-3)]GalNAc
# How it was run: as §1
# [17] = biological target: Neu5Ac(a2-3)Gal(b1-4)[Fuc(a1-3)]GlcNAc(b1-6)[Neu5Ac(a2-3)Gal(b1-3)]GalNAc
# How it was run: as §1
# [18] = biological target: Neu5Ac(a2-3)Gal(b1-4)[Fuc(a1-3)]GlcNAc6S
# How it was run: as §1
# [19] = biological target: Neu5Ac(a2-3)Gal6S(b1-4)GlcNAc
# How it was run: as §1
# [20] = biological target: Neu5Ac(a2-3)Gal6S(b1-4)[Fuc(a1-3)]GlcNAc
# How it was run: as §1
# Neu5Ac(a2-3)GalNAc = biological target: Neu5Ac(a2-3)GalNAc
# How it was run: as §1
# [21] = biological target: Neu5Ac(a2-3)GalNAc(b1-4)GlcNAc
# How it was run: as §1
# [22] = biological target: Neu5Ac(a2-3)[GalNAc(b1-4)]Gal(b1-4)Glc
# How it was run: as §1
# [23] = biological target: Neu5Ac(a2-3)[GalNAc(b1-4)]Gal(b1-4)GlcNAc
# How it was run: as §1
# [24] = biological target: Neu5Ac(a2-3)[Neu5Ac(a2-6)]GalNAc
# How it was run: as §1
# Neu5Ac(a2-6)Gal = biological target: Neu5Ac(a2-6)Gal
# How it was run: as §1
# Neu5Ac(a2-6)Gal(b1-4)Glc = biological target: Neu5Ac(a2-6)Gal(b1-4)Glc
# How it was run: as §1
# [25] = biological target: Neu5Ac(a2-6)Gal(b1-4)GlcNAc
# How it was run: as §1
# [26] = biological target: Neu5Ac(a2-6)Gal(b1-4)GlcNAc(b1-2)Man(a1-3)Man(b1-4)GlcNAc(b1-4)GlcNAc
# How it was run: as §1
# [27] = biological target: Neu5Ac(a2-6)Gal(b1-4)GlcNAc(b1-2)Man(a1-3)[Gal(b1-4)GlcNAc(b1-2)Man(a1-6)]Man(b1-4)GlcNAc(b1-4)GlcNAc
# How it was run: as §1
# [28] = biological target: Neu5Ac(a2-6)Gal(b1-4)GlcNAc(b1-2)Man(a1-3)[GlcNAc(b1-2)Man(a1-6)]Man(b1-4)GlcNAc(b1-4)GlcNAc
# How it was run: as §1
# [29] = biological target: Neu5Ac(a2-6)Gal(b1-4)GlcNAc(b1-2)Man(a1-3)[GlcNAc(b1-2)Man(b1-4)GlcNAc(b1-2)Man(a1-6)]Man(b1-4)GlcNAc(b1-4)GlcNAc
# How it was run: as §1
# [30] = biological target: Neu5Ac(a2-6)Gal(b1-4)GlcNAc(b1-2)Man(a1-3)[Man(a1-6)]Man(b1-4)GlcNAc(b1-4)GlcNAc
# How it was run: as §1
# [31] = biological target: Neu5Ac(a2-6)Gal(b1-4)GlcNAc(b1-2)Man(a1-3)[Neu5Ac(a2-6)Gal(b1-4)GlcNAc(b1-2)Man(a1-6)]Man(b1-4)GlcNAc(b1-4)GlcNAc
# How it was run: as §1
# [32] = biological target: Neu5Ac(a2-6)Gal(b1-4)GlcNAc(b1-2)Man(a1-6)Man(b1-4)GlcNAc(b1-4)GlcNAc
# How it was run: as §1
# [33] = biological target: Neu5Ac(a2-6)Gal(b1-4)GlcNAc(b1-2)Man(a1-6)[Gal(b1-4)GlcNAc(b1-2)Man(a1-3)]Man(b1-4)GlcNAc(b1-4)GlcNAc
# How it was run: as §1
# [34] = biological target: Neu5Ac(a2-6)Gal(b1-4)GlcNAc(b1-2)Man(a1-6)[GlcNAc(b1-2)Man(a1-3)]Man(b1-4)GlcNAc(b1-4)GlcNAc
# How it was run: as §1
# [35] = biological target: Neu5Ac(a2-6)Gal(b1-4)GlcNAc(b1-2)Man(a1-6)[Man(a1-3)]Man(b1-4)GlcNAc(b1-4)GlcNAc
# How it was run: as §1
# [36] = biological target: Neu5Ac(a2-6)Gal(b1-4)GlcNAc(b1-3)Gal(b1-3)GlcNAc
# How it was run: as §1
# [37] = biological target: Neu5Ac(a2-6)Gal(b1-4)GlcNAc(b1-3)Gal(b1-4)GlcNAc
# How it was run: as §1
# [38] = biological target: Neu5Ac(a2-6)Gal(b1-4)GlcNAc(b1-3)Gal(b1-4)GlcNAc(b1-3)Gal(b1-4)GlcNAc
# How it was run: as §1
# [39] = biological target: Neu5Ac(a2-6)Gal(b1-4)GlcNAc(b1-3)Gal(b1-4)[Fuc(a1-3)]GlcNAc(b1-3)Gal(b1-4)[Fuc(a1-3)]GlcNAc
# How it was run: as §1
# [40] = biological target: Neu5Ac(a2-6)Gal(b1-4)GlcNAc(b1-3)GalNAc
# How it was run: as §1
# [41] = biological target: Neu5Ac(a2-6)Gal(b1-4)GlcNAc6S
# How it was run: as §1
binder,measurement,setting,value
"MRCL (Homo sapiens), NP_872425.1 (protein) ATKVHFPFHTCDLRIDGDCFMVSSEADTYYRARMKCQRKGGVLAQIKSQKVQDILAFYLGRLETTNEVTDSDFETRNFWIGLTYKTAKDSFRWATGEHQAFTSFAFGQPDNHGLVWLSAAMGFGNCVELQASAAFNWNNQRCKTRNRYICQFAQEHISRWGPGS",glycan array binding signal (z-score),Neu5Ac(a2-3)Gal(b1-4)Glc,-0.235
same,glycan array binding signal (z-score),[1],-0.626
same,glycan array binding signal (z-score),[2],-0.294
same,glycan array binding signal (z-score),[3],-0.156
same,glycan array binding signal (z-score),[4],0.087
same,glycan array binding signal (z-score),[5],-0.539
same,glycan array binding signal (z-score),[6],-0.184
same,glycan array binding signal (z-score),[7],-0.365
same,glycan array binding signal (z-score),[8],-0.532
same,glycan array binding signal (z-score),[9],2.79
same,glycan array binding signal (z-score),[10],-0.476
same,glycan array binding signal (z-score),[11],-0.471
same,glycan array binding signal (z-score),[12],-0.275
same,glycan array binding signal (z-score),[13],-0.035
same,glycan array binding signal (z-score),[14],-0.637
same,glycan array binding signal (z-score),[15],-0.442
same,glycan array binding signal (z-score),[16],-0.645
same,glycan array binding signal (z-score),[17],-0.712
same,glycan array binding signal (z-score),[18],2.57
same,glycan array binding signal (z-score),[19],-0.333
same,glycan array binding signal (z-score),[20],-0.64
same,glycan array binding signal (z-score),Neu5Ac(a2-3)GalNAc,-0.424
same,glycan array binding signal (z-score),[21],0.235
same,glycan array binding signal (z-score),[22],0.305
same,glycan array binding signal (z-score),[23],-0.242
same,glycan array binding signal (z-score),[24],-0.175
same,glycan array binding signal (z-score),Neu5Ac(a2-6)Gal,0.351
same,glycan array binding signal (z-score),Neu5Ac(a2-6)Gal(b1-4)Glc,-0.34
same,glycan array binding signal (z-score),[25],-0.541
same,glycan array binding signal (z-score),[26],-0.253
same,glycan array binding signal (z-score),[27],1.25
same,glycan array binding signal (z-score),[28],-0.489
same,glycan array binding signal (z-score),[29],-0.471
same,glycan array binding signal (z-score),[30],1.4
same,glycan array binding signal (z-score),[31],1.23
same,glycan array binding signal (z-score),[32],-0.627
same,glycan array binding signal (z-score),[33],-0.538
same,glycan array binding signal (z-score),[34],0.663
same,glycan array binding signal (z-score),[35],-0.277
same,glycan array binding signal (z-score),[36],0.693
same,glycan array binding signal (z-score),[37],-0.66
same,glycan array binding signal (z-score),[38],-0.367
same,glycan array binding signal (z-score),[39],-0.377
same,glycan array binding signal (z-score),[40],-0.457
same,glycan array binding signal (z-score),[41],0.995
